Reference: PubChem BioAssay (NCI)
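Test compounds were applied to cells in 96-well plates for 48 hours at 5 doses. At the GI50, growth is halved. At the TGI there is no net growth.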

Test system: NCI-H322M lung
Assay: NCI tumour cell line growth inhibition, 48 h

`COc1cccc2c1[C@H](OC)[C@]13O[C@@]1(C2=O)[C@H](O)[C@H](C)[C@@](O)(C(=O)[C@@H]1O[C@H]1C)[C@@H]3O` showed a GI50 of 237 nM and a TGI of 740 nM.
